Test results reported in the supplement of paper PMC11417369.
The list shows a part of the results.

test system: PfHDP1 homeodomain (GST-tagged); experiment: gcPBM binding intensity (ln(normalized median fluorescence intensity)); higher = stronger DNA binding
Summary of the method: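 An Agilent 4 × 180k array carrying primer-extended double-stranded 36-bp intergenic genomic probes and negative controls received GST-tagged P. falciparum DNA-binding domains expressed in E. coli, about 25 μg on average, for 1 h. The binding buffer contained 1× PBS, 1% milk, 0.2 mg/ml BSA, 0.5% salmon testes DNA and 0.03% Triton X-100. Binding intensity is the top Masliner-normalised natural-log median intensity across replicate spots of either probe orientation, read after Alexa488 anti-GST antibody staining and a 488 nm scan.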

Sequence	gcPBM binding intensity (ln)
ATATGTCCATATAGTAAATGTTACATTTTAAAGCGC [XGTACX_negctrl_site168]	7
ATTCTTAAAAAATAAGTGCAAAATAATTAAATAAAT	9.38
TTATATTTTAAGAAATGTACATGATATAATTATCAA [XGTACX_site8693]	6.39
TGGATGAGGACATACACACACACATAAGTTGATACA [CACACA_site3423]	6.58
TTTTTTTTAATTTTCTGTACAAATTTATATATACTA [XGTACX_site4251]	6.42
AATGAAAAGGAACATACACACCCCATATAAATATAT [CACACA_site7588]	7.27
TATTTCTTATGAAGGACATGCAATATTATTTATCTC [TGCATGCA_site683]	6.35
ATAATATATAATATAGTGCATTATTTATTAATTAAT [GTGCAC_site9852]	9.34
AGGAAATTTTTTTTTTTTTTTTTTTTTTTTTTTTAC [TGCATGCA_negctrl_site170]	5.7
CAAAATATTATGAATTGTACATATTTTAAAACGTTT [XGTACX_site1614]	6.38
TGATAAGTATACTAAAGTACATGAAAAATAACTTCC [XGTACX_site6908]	6.22
TCCTAATGGTTTAATTGTACAAAAAAAAAAAATATA [XGTACX_site322]	6.35
TGATTATAAAAGTAGGTGCTACAAAAATTACACATT [GTGCAC_site9530]	6.22
ATAGATGTCTTCATATGTACATAAATTCAAGTATAT [XGTACX_site7492]	6.54
GGTCTTTTTATGATATGTACTTATATAATATTATAT [XGTACX_site6458]	7.34
ATGTAGAAGTAATGCACACATATGTATATATATATA [CACACA_site2494]	10.5
AACAGCATGAAGTAAAGTACTAGTTTTATTTATTTA [XGTACX_site1116]	6.08
TTTCTATAATATTCTACACACCAACAACAAACATAT [CACACA_site6409]	7.3
TATAAATATACAAAGGTGCATAAAAAGTTATGTTTT [GTGCAC_site9832]	9.08
AAAAAATTTTGAAATTGTACATATATAAAAAATATA [XGTACX_site2629]	6.33
TTTAAATATATTAATACACACACGATATGTACAAAA [CACACA_site539]	6.64
GAATAAATTGTATTGTGTACATATAAAAGCATCTAA [XGTACX_site8271]	6.64
AAATAAAAATTACAAGCATGCATTTTCCTATTTGCA [TGCATGCA_site861]	5.95
GTGTAAAAATTAAAGTGTACACATATATATATATAT [XGTACX_site2251]	9.32
TTTCGAATTAAAGCATGTGAAAATTTTCAAAAAATA [XGTACX_negctrl_site577]	6.74
